# Some of the results follow.
# Test system: T1, C. trachomatis L2/434/Bu expressing GFP (CTL2-GFP)
# T1 construct: L2/434/Bu GFP intracellular growth in HeLa cells
# Parameters: species or system HeLa; C. trachomatis total inclusion area by high-content imaging, normalised to DMSO
# Settings: total inclusion area; 28.5 h, 10 µM; inhibitor
# How it was run: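 High-content images of fixed, Hoechst-stained infected cultures supply inclusion area and count (growth) plus nuclei number (viability), complementing bulk GFP/resorufin fluorescence. MIC determination is unchanged from the primary assay.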
row,SMILES,% of control remaining
1,Cc1ccc(C(N)=O)c(OCC(=O)N2c3ccccc3CCC2C)c1 (stereo not shown) [CBK295633],107.403
2,COc1ccccc1Nc1nc(N)nc(CSCCO)n1 [CBK266679],115.27
3,Cc1cc(Br)c(NCC(=O)N/N=C/c2ccc(O)cc2)c(Br)c1 [CBK263506],71.0616
4,COc1ccc(-c2n[nH]c(=S)n2CC(=O)Nc2nc(-c3ccc(C)cc3C)cs2)cc1 [CBK295316],90.491
5,O=C(C1CC1)N1C2CCC1Cn1c(nc3ccccc3c1=O)C2 (stereo not shown) [CBK284451],99.239
6,CNC(=O)C1(Cc2ccccc2-c2cccs2)CCN(C(=O)c2ccccc2OC)CC1 [CBK285685],97.4743
7,Cc1nc2c(c(=O)[nH]1)CN(Cc1ccc(Cl)c(Cl)c1)CC2 [CBK283949],89.6919
8,Cc1cc(NC(=O)c2cncnc2)c2ccccc2n1 [CBK122734],60.7275
9,CCCc1c(O)n[nH]c1Cc1ccc(Cl)cc1 [CBK078564],94.6996
10,CCN(C(=O)c1cnc2n(c1=O)CCS2)c1ccccc1 [CBK287384],76.3436
11,COC[C@@H]1CCCN1S(=O)(=O)c1cccs1 [CBK045239],79.151
12,CCCC/C=C/c1cn2ccnc2c(Nc2ccc(OC)nc2)n1 [CBK038089],97.2841
13,Cc1nn(-c2ccccc2)c2sncc12 [CBK006869],78.349
14,OCC1CCN(Cc2cnn(C3CCCCC3)c2)C1 (stereo not shown) [CBK283086],82.3527
15,O=C(Cn1ccc2ccnc(-c3cccs3)c21)N1CCNCC1 [CBK284733],106.381
16,Cc1nc2c(C(=O)NCCOCCO)cnn2c(C)c1Cc1ccc(F)c(Cl)c1 [CBK167457],61.9575
17,Cn1cc(C(=O)N2CCCC3(C/C=C/COc4ccccc4C(=O)NCCNC3=O)C2)cn1 (stereo not shown) [CBK292102],120.673
18,COc1ccc(N2CCN(/C(=N\S(=O)(=O)c3ccc(C)cc3)Nc3nc(C)cc(C)n3)CC2)cc1 [CBK266564],114.795
19,Cn1nc(C2CC2)cc1C(=O)NCCN1CCc2ccccc21 [CBK282138],76.6187
20,Cc1nc(=O)c(-c2ccccc2)c(C)n1CCCCCC(=O)O [CBK287060],81.81
21,O=C(Cn1cccc(C(=O)NC2CCCCC2)c1=O)NCC1(c2ccccc2Cl)CC1 [CBK286054],91.2602

row,SMILES,% of control remaining
1,Cc1cc(C)nc(NS(=O)(=O)c2ccc(OC(F)(F)F)cc2)c1 [CBK044711],119.42
2,Cc1ccc(NC(=O)c2ccccc2)s1 [CBK086724],92.4153
3,O=C(c1cccc(C(=O)N(Cc2ccccc2)c2ccccn2)c1)N(Cc1ccccc1)c1ccccn1 [CBK091794],112.689
4,c1ccc(Nc2cncc(N3CCNCC3)n2)cc1 [CBK013389],81.2693
5,CCC(CC)C(=O)Nc1nc(OC)cnc1-c1ccc(OCOC)cc1 [CBK145207],104.494
6,O=C(O)/C=C\C(=O)Nc1cccc(NC(=O)c2cccs2)c1 [CBK263952],103.755
7,O=C(Nc1ccc(Cc2ccncc2)cc1)c1cc([N+](=O)[O-])n[nH]1 [CBK269157],89.569
8,CCn1c2cc(C)oc2c2cnn(CC(=O)N(C)C)c(=O)c21 [CBK284224],84.4029
9,Cc1nc(-c2ccccc2)sc1CNC(=O)C(C)c1ccc([N+](=O)[O-])cc1 (stereo not shown) [CBK092364],28.1232
10,Cn1cccc1CN1C[C@H]2CC[C@]3(NC(=O)c4ccccc4N3)[C@H]2C1 [CBK284443],100.449
11,CCC(=O)NCc1ccc(-c2nc3ncccc3o2)cc1 [CBK270220],74.9896
12,COc1ccc2c(c1)Cc1sc(NC(C)=O)nc1-2 [CBK287876],98.0006
13,Cc1nc(-c2cc(Cl)c(Cl)s2)cs1 [CBK009801],67.9978
14,CCCC(SCC)C(N)=O (stereo not shown) [CBK020895],66.105
15,CCC(CO)Nc1cncc(-c2cccc(C(F)(F)F)c2)n1 (stereo not shown) [CBK065783],72.7937
16,Cc1c(Cl)c(C(=O)N[C@@H]2CCN(Cc3ccccn3)C[C@H]2O)nn1C [CBK306676],61.6755
17,O=C(CCS(=O)(=O)c1ccccc1)Nc1cncc(OC2CCNCC2)n1 [CBK028438T],87.2461
18,Cc1ccc2[nH]cc(CCNC(=O)c3cccc(NC(=O)c4ccccc4)c3)c2c1 [CBK269235],92.8019
19,O=C(/C=C\c1ccco1)Oc1ccc(/C=N\NC(=O)c2cncc(Br)c2)cc1 [CBK261385],105.638
20,CCn1cc(-c2cncn2CCCN2CCCCC2)cn1 [CBK281767],73.4223
21,Cc1nn([C@H]2C[C@@H](O)[C@@H](CO)O2)c(=O)[nH]c1=O [CBK201185],119.165

row,SMILES,% of control remaining
1,CCC(Oc1ccccc1F)C(=O)Nc1cc(C)on1 (stereo not shown) [CBK305558],81.4804
2,Cc1ccc(-c2c(C(=O)NNC(=S)NCC3CCCO3)csc2C)cc1 (stereo not shown) [CBK267062],92.0374
3,COCCN(Cc1cnn(C)c1)C(=O)c1cc(=O)c2cccc(F)c2[nH]1 [CBK306651],64.2806
4,c1ccc(OCCN2CCCN(c3nccc(OCCN4CCOCC4)n3)CC2)cc1 [CBK083940],63.0255
5,O=C(c1cc(F)c(F)cc1F)N1CCC2(CCCN(Cc3ccc4ccccc4c3)C2)C1 (stereo not shown) [CBK131998],71.3189
6,O=C(CCOc1ccccc1)Nc1c(F)cc(F)cc1OC1CCNCC1 [CBK045897T],67.6741
7,COC(=O)N1CCCCC1C(=O)NCCc1nc(C)cc(C(F)(F)F)n1 (stereo not shown) [CBK306752],54.0279
8,c1cnc(N2CCCC2)c(OCc2ccsc2)n1 [CBK115664],94.0767
9,CC(C)OCC1CN(c2cc(CO)c(F)cn2)CCO1 (stereo not shown) [CBK304755],81.926
10,COc1cc(C2N(Cc3ccccc3)CCN2Cc2ccccc2)ccc1OC(C)=O [CBK261349],104.24
11,Cc1ccc(C2=NO[C@@](CC(=O)O)(C(=O)Nc3ccc4c(c3)OCCO4)C2)cc1 [CBK286653],67.2785
12,Cc1nccn1CC1CCCN(Cc2ccnc3ccccc23)C1 (stereo not shown) [CBK281966],118.686
13,CC1CCCN(C(=O)CCn2c(-c3ccncc3)cc3cccnc32)C1 (stereo not shown) [CBK282152],104.206
14,CC(C)Cc1cc(CNS(=O)(=O)Cc2ccccc2F)on1 [CBK281505],64.627
15,O=C1Oc2nc3ccccc3cc2CN1C1CC1 [CBK282870],0.4218
16,Cc1nn(-c2ccccc2)c(Cl)c1CN1C(=O)NC2(CCCCC2)C1=O [CBK306043],81.2134
17,Cc1cccnc1NC(=O)c1cc(O)nc2ccccc12 [CBK300499],121.285
18,O=C(NC1CCCCC1)N[C@H]1CO[C@H]2[C@@H]1OC[C@@H]2Nc1nccc(C2CCCC2)n1 [CBK289531],103.532
19,Clc1ccc(Cl)c(-c2nc3ccccc3o2)n1 [CBK095353],84.2511
20,O=C(C1C2CCCCC21)N1CCC(Oc2cccc(F)c2)CC1 (stereo not shown) [CBK282216],98.5071
21,CCCCc1cc(=O)[nH]c(NCc2ccc(C(F)(F)F)cc2)n1 [CBK003946],89.1202

row,SMILES,% of control remaining
1,COc1ccccc1NC(=O)CN(c1ccc(C)cc1)S(=O)(=O)c1ccc(F)cc1 [CBK262718],95.8539
2,COc1cccc(-n2nnc3c(SCC(N)=O)ncnc32)c1 [CBK287543],55.8777
3,Cc1ccc(OCC(=O)NCC(c2cccs2)N2CCOCC2)cc1C (stereo not shown) [CBK306143],74.9154
4,CC1Cc2cc(C(=O)N3CCCCC3CN(C)C)ccc2O1 (stereo not shown) [CBK282193],100.866
5,O=C(CN1CCCCC1)Nc1ccc(NC(=O)CN2CCCCC2)c(Cl)c1 [CBK264173],112.808
6,CCc1nnc(SCC(=O)Nc2ccc(CN3CCOCC3)cc2)[nH]1 [CBK306097],60.0994
7,Cc1nnnn1-c1cc(NC(=O)NCCN2CCOCC2)ccc1F [CBK306246],37.4665
8,CCN1C(=O)CC2(C1=O)C(=O)N(CCCN(C)S(C)(=O)=O)c1ccccc12 (stereo not shown) [CBK075519],119.47
9,COc1ccc(Nc2cc(-c3ccc(CNC(=O)OC(C)(C)C)cc3)ncn2)c(OC)c1 [CBK090757],88.612
10,COc1ccc(NC(=O)NC(=O)c2ccc(Cl)cc2)c(OC)c1 [CBK269462],106.053
11,CCOC(=O)Cc1cc(O)nc(NC(=N)Nc2ccc(C)cc2C)n1 [CBK264986],103.103
12,N#Cc1ccc(C(=O)NCC2(N3CCOCC3)CCSC2)cc1 (stereo not shown) [CBK305602],29.9797
13,COc1ccc(Cl)cc1NC(=O)C1CCCN1S(=O)(=O)c1ccc(F)cc1 (stereo not shown) [CBK069866],94.8243
14,CN1CCN(NC(=O)COc2ccc(-c3ccccc3)cc2)CC1 [CBK268117],101.665
15,CCOC(=O)c1cc(C(C)C)sc1NC(=O)C1C2C=CC(C2)C1C(=O)O (stereo not shown) [CBK265417],109.704
16,COc1ccc(N(CC(=O)Nc2c(F)cccc2F)S(=O)(=O)c2ccccc2)cc1 [CBK266883],113.649
17,Nc1nc2ccc(-c3nc4ccccc4o3)cc2s1 [CBK287846],33.2919
18,O=C(CSc1nc2ccccc2n1Cc1ccccc1)N/N=C/c1ccco1 [CBK263174],101.04
19,CS(=O)(=O)Nc1ccc2c(O)c(C(=O)NCc3ccc(Cl)cc3)c(=O)[nH]c2c1 [CBK017559],77.2534
